Here are results for 1 molecule from article PMC3691460 (The Journal of Cell Biology, 2013).

In the assay the target is T1, β3 subunit PSI, hybrid, βI, and I-EGF-1 domains (UniProt P05106).
T1 sequence: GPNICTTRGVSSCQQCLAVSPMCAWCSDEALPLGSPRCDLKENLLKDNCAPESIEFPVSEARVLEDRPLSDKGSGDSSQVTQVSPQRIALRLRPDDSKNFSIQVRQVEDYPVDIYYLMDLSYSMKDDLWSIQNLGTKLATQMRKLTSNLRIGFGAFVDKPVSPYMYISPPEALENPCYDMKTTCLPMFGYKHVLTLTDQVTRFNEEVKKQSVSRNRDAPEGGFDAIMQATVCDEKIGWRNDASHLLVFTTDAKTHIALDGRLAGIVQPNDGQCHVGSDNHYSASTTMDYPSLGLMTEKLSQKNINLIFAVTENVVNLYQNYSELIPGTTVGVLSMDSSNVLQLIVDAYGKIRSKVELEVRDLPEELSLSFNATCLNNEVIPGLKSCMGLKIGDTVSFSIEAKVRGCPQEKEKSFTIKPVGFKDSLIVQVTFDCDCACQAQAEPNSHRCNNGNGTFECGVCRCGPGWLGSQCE
The experiment in a line: crystal structure.

B1: αIIb subunit β-propeller domain (domain or fragment)
chain: not shown
Consider B1, for which the binding result was “binds”.
